In PubChem BioAssay AID1030 (National Center for Advancing Translational Sciences (NCATS), 2008):
Hit rate of the full screen: of about 220,000 compounds, about 16,000 (7.3%) were called active. This list was built around the results that the source calls inconclusive (neither active nor inactive); the mix of calls is not that of the screen. Calls follow the shape of the dose curve; as a rule, active = well fitted inhibition curve with a large enough effect (not every such curve was filed as active); inconclusive = small, poorly fitted or top-dose-only effect, or another doubt; inactive = no such curve, though single readings can be large or run the other way. Potencies of inconclusive entries are left out as doubtful fits.

Target: Aldehyde dehydrogenase 1A1 (Homo sapiens) (UniProt P00352)
Test: qHTS Assay for Inhibitors of Aldehyde Dehydrogenase 1 (ALDH1A1);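 as to activity, negative = inhibition: plate controls were no enzyme wells and a reference inhibitor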
Details: Purified ALDH1A1, NADH fluorescence, propionaldehyde substrate; series mostly up to 75.3 µM; activity, negative = inhibition: at the top concentration
Potency is read from the fitted curve at half-maximal effect; tags tell the direction and shape of the fitted curve.

Chain of UniProt P00352 (P00352 whole entry, looked up): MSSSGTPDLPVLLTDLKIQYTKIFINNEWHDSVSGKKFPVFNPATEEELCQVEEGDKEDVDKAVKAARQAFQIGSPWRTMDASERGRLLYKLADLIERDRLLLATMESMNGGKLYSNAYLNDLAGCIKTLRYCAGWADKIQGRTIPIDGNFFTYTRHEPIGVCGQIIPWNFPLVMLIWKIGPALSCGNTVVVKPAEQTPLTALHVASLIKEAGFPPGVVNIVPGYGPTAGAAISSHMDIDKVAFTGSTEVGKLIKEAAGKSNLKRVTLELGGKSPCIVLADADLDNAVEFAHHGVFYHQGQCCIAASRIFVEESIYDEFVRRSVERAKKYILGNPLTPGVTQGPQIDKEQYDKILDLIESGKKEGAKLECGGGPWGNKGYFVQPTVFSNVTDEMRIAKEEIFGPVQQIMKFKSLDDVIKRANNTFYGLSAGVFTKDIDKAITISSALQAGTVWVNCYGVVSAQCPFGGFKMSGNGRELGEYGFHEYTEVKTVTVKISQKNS

| SMILES | Potency | activity, negative = inhibition |
| --- | --- | --- |
| COC(=O)c1cc(OC)c(OC)cc1NC(=O)CSc1ccc(C)cc1 | inconclusive [inhibitor, single point] | – |
| CCc1ccccc1NC(=S)N(CCc1ccncc1)C(C)C | – | inactive: 10.8% |
| CCOC(=O)C1CCCN(CCC(=O)Nc2cccc(F)c2)C1 (stereo not drawn) | – | inactive: 11.6% |
| CSCc1cc(N2CCOCC2)nc(SCc2ccc(Cl)c(Cl)c2)n1 | inconclusive [inhibitor, single point] | – |
| CCNC(=O)n1nccc1C(C)Oc1cccc(C(F)(F)F)c1 (stereo not drawn) | – | inactive: -0.256% |
| Cc1cnc(NC(=O)C2(c3ccccc3)CC2)s1 | – | inactive: -5.54% |
| Fc1cccc(Cn2cc(C(=S)N3CCOCC3)c3ccccc32)c1 | – | inactive: 0.476% |
| CC(=O)c1ccc(N2CCN(C(=O)C3(S(=O)(=O)c4ccc(Cl)cc4)CC3)CC2)cc1 | inconclusive [inhibitor, partial curve] | – |
| COc1cc(C(=S)N2CCCC2)cc(OC)c1O | – | inactive: -98.7% |
| COc1ccccc1C(=O)Nc1nc(-c2cccs2)c(NC(C)=O)s1 | inconclusive [inhibitor, single point] | – |
| CCNC(=O)OCC12CC3CC(CC(C3)C1)C2 | inconclusive [inhibitor, single point] | – |
| COc1ccc(NC(=O)Cc2c(O)c3ccccc3[nH]c2=O)cc1 | inconclusive [inhibitor, single point] | – |
| COc1cc(C(=O)N(CCc2ccccc2)C2CC3CCC(C2)N3C)cc(OC)c1OC (stereo not drawn) | inconclusive [inhibitor, partial curve] | – |
| CCCCNC(=O)c1onc(CSc2ccccc2F)c1C(=O)O | – | inactive: 5.91% |
| CC(=O)N1CCN(C2=NC(=O)C(=C3CCCCC3)S2)CC1 | active: 12.6 µM | – |
| Cc1nc(SCC(=O)Nc2ccccc2)c2oc3ccccc3c2n1 | inconclusive [inhibitor, single point] | – |
| Cn1c(SCC(=O)Nc2ccc(N3CCOCC3)cc2)nnc1-c1ccccc1 | inconclusive [inhibitor, single point] | – |
| COc1cccc(CS(=O)(=O)c2nnnn2-c2ccc(F)cc2Br)c1 | inconclusive [inhibitor, single point] | – |
| CC1Cc2ccccc2N1C(=O)CSc1nnc(-c2ccccc2)c(-c2ccccc2)n1 (stereo not drawn) | – | inactive: -9.52% |
| Cc1cccc(NC(=S)NNC(=O)c2ccccc2Br)c1 | inconclusive [inhibitor, single point] | – |
| Cc1ccc(-n2nnnc2SCn2nnc3ccccc3c2=O)cc1 | inconclusive [inhibitor, partial curve, poor fit] | – |
| O=C(Cc1ccccc1F)Nc1ccc(Cl)nc1 | inconclusive [inhibitor, single point] | – |
| COc1cccc(-n2nnnc2SCC(=O)Nc2cccc(C)n2)c1 | inconclusive [inhibitor, single point] | – |
| Cc1cccc(-n2cc3c(=O)n(C)c(=O)n(C)c3c2)c1 | inconclusive [inhibitor, single point] | – |

| SMILES | Potency | activity, negative = inhibition |
| --- | --- | --- |
| CCN(CCCNC(=O)c1c(C)cc(=O)oc1C)c1ccccc1 | active: 7.94 µM | – |
| Cc1ccc(NS(=O)(=O)c2ccc(NC(=O)c3cccc(NC(=O)C(C)C)c3)cc2)cc1 | – | inactive: 5.91% |
| O=C(Nc1ccccc1)c1nnn(Cc2ccccc2)c1NC(=O)C(F)(F)F | inconclusive [inhibitor, partial curve] | – |
| N#C/C(=C(/O)CCl)c1nnc2n1CCCCC2 | inconclusive [inhibitor, single point] | – |
| Nn1c(SCCOc2ccccc2)nnc1-c1cccnc1 | inconclusive [inhibitor, single point] | – |
| Cc1cc(C)n(-c2nc3ccccc3c(=O)n2OCc2ccc(F)cc2)n1 | inconclusive [inhibitor, single point] | – |
| COc1ccc(C2C(C(=O)Nc3ccc(F)cc3)=C(C)Nc3nc(CCCO)nn32)cc1 (stereo not drawn) | inconclusive [inhibitor, partial curve] | – |
| S=C1SCN(Cc2cccnc2)CN1Cc1cccnc1 | active: 14.1 µM | – |
| Cc1nn(C(C)C(=O)NCc2cccs2)c(C)c1[N+](=O)[O-] (stereo not drawn) | – | inactive: 10.7% |
| CCN(CC)C(=O)CSc1nc2ncc(Br)cc2[nH]1 | inconclusive [inhibitor, partial curve] | – |
| CCn1cnc2c1c(=O)n(CC(=O)Nc1cc(C)on1)c(=O)n2Cc1ccccc1 | inconclusive [inhibitor, single point] | – |
| Cc1ccc2nc(N(CCCN(C)C)C(=O)c3ccc4c(c3)CCCC4)sc2c1 | – | inactive: -13.9% |
| O=C(OCc1ccccc1F)c1ccc2c(c1)OCCO2 | – | inactive: -11.3% |
| O=C(c1cnn2c(C(F)F)cc(-c3ccccc3)nc12)N1CCCc2ccccc21 | active: 20 µM | – |
| COc1ccc(NC(=O)CN(C)CC(=O)Nc2cccc(F)c2)cc1Cl | inconclusive [inhibitor, single point] | – |
| Cc1[nH]nc(N=CC2=C(O)CC(C)(C)CC2=O)c1-c1ccc(Cl)cc1 | active: 14.1 µM | – |
| Cc1ccn(C(=O)c2cc3c(C)nn(-c4ccccc4)c3s2)n1 | inconclusive [inhibitor, partial curve] | – |
| O=C(Nc1c2c(nn1-c1ccccc1)CS(=O)C2)c1ccc(S(=O)(=O)N2CCOCC2)cc1 (stereo not drawn) | – | inactive: -5.09% |
| COc1ccc(C)cc1NC(=O)C(Sc1nnc(-c2cccs2)o1)c1ccccc1 (stereo not drawn) | – | inactive: -6.14% |
| Cc1cc(C(=O)N2CCCC(C(=O)c3ccc4ccccc4c3)C2)n(C)n1 (stereo not drawn) | inconclusive [inhibitor, single point] | – |
| CCCc1c(O)c2ccccc2[nH]c1=O | inconclusive [inhibitor, partial curve] | – |
| S=c1[nH]nc(-c2ccccn2)n1/N=C/c1ccc(-c2ccccc2Cl)o1 | inconclusive [inhibitor, single point] | – |
| O=c1c(Cl)c(Cl)cnn1-c1ccccc1 | active: 12.6 µM | – |
| O=C(Cn1ncc2c(=O)oc3ccccc3c21)N(Cc1ccco1)C1CCCCC1 | inconclusive [inhibitor, single point] | – |
